The full ranking holds about 18,000 sequences; the median of “TetR repression strength (sort-seq, GFP reporter)” is about 0.23, and the highest 2% start at about 0.68. The list shows a part of the results.
target: TetR (class B, Tn10) (UniProt P04483); test: TetR repression strength (sort-seq, GFP reporter) (relative to tetO2 = 1); higher = stronger repression; conditions: E. coli
Procedure, shortened: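 Escherichia coli SIG10-MAX cells carried a low-copy plasmid library in which eight operator positions were randomized between a constitutive promoter and sfGFP, and TetR was expressed constitutively. After 5 h of growth at 37 °C in LB with 50 µg/mL chloramphenicol, 10^6 cells were FACS-sorted into 13 fluorescence bins, and each bin was Illumina-sequenced. Repression strength was the top bin index plus one minus the read-weighted mean bin, divided by the value for the unaltered operator. Across three independent transformations, only library members with ≥30 reads in every replicate and a CV ≤0.5 were averaged.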

UniProt P04483, sequence (P04483 whole entry): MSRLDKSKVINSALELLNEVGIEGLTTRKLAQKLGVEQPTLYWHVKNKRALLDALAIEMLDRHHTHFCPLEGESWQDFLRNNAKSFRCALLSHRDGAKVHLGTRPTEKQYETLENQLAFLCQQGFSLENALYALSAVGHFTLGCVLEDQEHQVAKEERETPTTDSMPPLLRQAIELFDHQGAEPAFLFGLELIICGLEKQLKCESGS

Row | Sequence | TetR repression strength
1 | TCCCAGAGAGTAACCGAGA | 0.619
2 | TCCCCTAGAGTATGTGAGA | 0.301
3 | TCCCGAGAAGTTTAGGAGA | 0.0283
4 | TCCCTGGTAGTAAGAGAGA | 0.146
5 | TCCCGGGAAGTTGTCGAGA | 0.18
6 | TCCCCTCTAGTGGTCGAGA | 0.244
7 | TCCCAACCAGTCCCGGAGA | 0.12
8 | TCCCCCAAAGTGGTGGAGA | 0.321
9 | TCCCGACGAGTGGCGGAGA | 0.407
10 | TCCCAAATAGTACAAGAGA | 0.42
11 | TCCCTAAAAGTTCTAGAGA | 0.185
12 | TCCCGGTAAGTGTGTGAGA | 0.168
13 | TCCCGGTGAGTCTACGAGA | 0.0533
14 | TCCCGAGGAGTTGATGAGA | 0.125
15 | TCCCTTCTAGTGAGGGAGA | 0.426
16 | TCCCAGTTAGTCCAAGAGA | 0.366
17 | TCCCCCGAAGTCACTGAGA | 0.203
18 | TCCCGGCAAGTCGGTGAGA | 0.0647
19 | TCCCGTATAGTGCCCGAGA | 0.197

Row | Sequence | TetR repression strength
20 | TCCCACATAGTTGTAGAGA | 0.378
21 | TCCCGGAAAGTGGGTGAGA | 0.248
22 | TCCCGCGTAGTGCCCGAGA | 0.0499
23 | TCCCCGATAGTTAACGAGA | 0.221
24 | TCCCGTTAAGTCAGGGAGA | 0.208
25 | TCCCTTTCAGTCGGGGAGA | 0.0806
26 | TCCCGGGGAGTTAAAGAGA | 0.518
27 | TCCCATTCAGTCTTTGAGA | 0.228
28 | TCCCAATTAGTTGGCGAGA | 0.284
29 | TCCCTTTGAGTCGCAGAGA | 0.386
30 | TCCCGGGCAGTCTGGGAGA | 1.2
31 | TCCCGCACAGTCGAGGAGA | 0.404
32 | TCCCGGCCAGTGTGGGAGA | 0.13
33 | TCCCCTGGAGTCACCGAGA | 0.476
34 | TCCCCGTGAGTTGCGGAGA | 0.279
35 | TCCCACCCAGTGCTTGAGA | 0.305
36 | TCCCACGTAGTGACAGAGA | 0.181
37 | TCCCTCTTAGTATATGAGA | 0.301
38 | TCCCGCTCAGTAGGTGAGA | 0.16

Row | Sequence | TetR repression strength
39 | TCCCGGTTAGTGCCCGAGA | 0.64
40 | TCCCATCTAGTTCATGAGA | 0.213
41 | TCCCGCACAGTCCTCGAGA | 0.528
42 | TCCCATTTAGTATCGGAGA | 0.125
43 | TCCCGAAGAGTGTCAGAGA | 0.345
44 | TCCCGATAAGTCTCGGAGA | 0.536
45 | TCCCCTTTAGTGTGGGAGA | 0.118
46 | TCCCCGGAAGTTCGAGAGA | 0.0315
47 | TCCCCTCGAGTAGGGGAGA | 0.151
48 | TCCCCATGAGTCTTGGAGA | 0.172
49 | TCCCCGTTAGTTTTGGAGA | 0.104
50 | TCCCGCATAGTTATTGAGA | 0.197
51 | TCCCTCTCAGTGATGGAGA | 0.546
52 | TCCCTATCAGTGATCGAGA | 0.868
53 | TCCCTGGTAGTTTGGGAGA | 0.0756
54 | TCCCTCTCAGTTAGAGAGA | 0.726
55 | TCCCCGTAAGTGCACGAGA | 0.193
56 | TCCCAGCAAGTAGCAGAGA | 0.198
